Screen size: about 50,000 compounds; about 800 (1.6%) showed an effect of 50% or more. This is one part of the list.

This test has as its target Bcl-2-like protein 10 (Homo sapiens) (UniProt Q9HD36). Put plainly: Phenotype converters, Bcl-B/TR3 peptide binding displacement, primary biochemical FP (AID 1240).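 Further: 0% = Bcl-B with tracer peptide and DMSO and 100% = tracer peptide lacking Bcl-B.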 The note with it: GST-Bcl-B / FITC-TR3 peptide fluorescence polarization; stronger effect = higher value; compound at 3.75 mg/L. For orientation: In fluorescence polarisation assays a small probe gives low polarisation when free and higher when bound to something large.
Chain of UniProt Q9HD36 (Q9HD36 whole entry, looked up): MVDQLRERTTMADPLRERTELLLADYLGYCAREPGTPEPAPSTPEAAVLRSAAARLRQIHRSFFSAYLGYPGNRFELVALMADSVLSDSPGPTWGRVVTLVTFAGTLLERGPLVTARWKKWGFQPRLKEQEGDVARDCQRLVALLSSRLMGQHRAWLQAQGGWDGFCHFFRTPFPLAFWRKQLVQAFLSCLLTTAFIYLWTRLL
Turning to `O=C1OC(C23CC4CC(CC(C4)C2)C3)=N/C1=C\c1ccccc1`, the displacement amounted to 15.4%.

As to `CCOC(=O)C1CCN(C(=O)Cc2ccc(OC)c(OC)c2)CC1`, the displacement is 1.3%.

In the case of `CC(C)c1ccc(NS(=O)(=O)c2cc(Cl)ccc2Cl)cc1`, the displacement was -7.8%.

Turning to `Cc1cccc(-n2c(O)c(C=Nc3ccccc3C)c(=O)[nH]c2=O)c1`, the displacement is 3.4%.

For the molecule `Cc1cc(C(=O)N/N=C(\CCC(=O)O)c2ccccc2)n[nH]1`, the displacement is -6.6%.

With `Cc1ccc(NC(CC(=O)O)C(=O)O)cc1` (stereo not drawn), the displacement amounted to 28.9%.

Turning to `Cc1ccc(NC(=O)/C(C#N)=C2\NC(C)(C)Cc3ccccc32)cc1`, the displacement was found to be 0.7%.

`COCC(=O)Nc1nc2ccccc2s1`: the displacement is 13.2%.

Take `CN1CCc2c1nc1ccccc1c2NC(=O)CN1CCCC1`: the displacement was -8.7%.

As to `CCCOc1ccc(N2C(=O)CC(N3CCC(C(=O)OCC)CC3)C2=O)cc1` (stereo not drawn), the displacement worked out at 3.8%.

In the case of `COC(=O)CN(c1cccc(Cl)c1Cl)S(=O)(=O)c1ccccc1`, the displacement was -2.9%.

For `COC(C)(C)c1cc(C(C)(C)C)nc(N)n1`, the displacement is -1.6%.

As for `Cc1cc(C(=O)Nc2ccc(I)cc2C(=O)O)ccc1[N+](=O)[O-]`, the displacement is 8%.

On to `O=C(CCNc1cccc(C(F)(F)F)c1)c1cccs1`, for which the displacement is -12.3%.

Turning to `Cc1ccc(C2OC3(C(=O)c4ccccc4C3=O)C(c3ccc(Br)cc3)C23C(=O)c2ccccc2C3=O)cc1` (stereo not drawn), the displacement is -7.9%.

Regarding `COc1ccccc1/C=C/C=NN1CCN(Cc2ccccc2)CC1`, the displacement was -3.3%.

In the case of `Cc1cc(OCC(O)CN2CCN(c3ccccc3)CC2)cc(C)c1Cl` (stereo not drawn), the displacement was -3%.

With `Nc1ccccc1C(=O)N/N=C\c1ccc(Br)o1`, the displacement was -6%.

As to `CC(Oc1ccccc1)C(=O)Nc1ccc(-c2nc3ccccc3o2)cc1` (stereo not drawn), the displacement is -5.1%.

Consider `C=CCN1C(=O)/C(=C\c2cccc3ccccc23)C(=O)NC1=S`, for which the displacement came to 9.4%.

Take `Cc1ccc(S(=O)(=O)NNC(=O)c2ccoc2C)cc1`: the displacement is 10%.

Consider `C/C(=N\NC(=O)c1ccc(O)cc1O)c1ccccn1`, for which the displacement came out at 3.2%.

For the molecule `Cc1ccccc1C(=O)Nc1c(C(=O)N2CCCC2)cnn1-c1ccccc1`, the displacement was -5.4%.

Consider `COc1ccc(NC(=O)CC(c2ccccc2)c2ccccc2)c(OC)c1`, for which the displacement is -1.8%.

As to `NC(=S)N/N=C(\c1ccccc1)C12CC3CC(CC(C3)C1)C2`, the displacement was -2.7%.

With `NC(=O)c1c(NC(=O)c2ccc(S(=O)(=O)N3CCCCC3)cc2)sc2c1CCCC2`, the displacement was -2.2%.

Turning to `Cn1cc(-c2nc3ccccc3[nH]2)c2ccccc21`, the displacement stood at 13.2%.

For the molecule `Cc1cc(-c2ccc(C=C3C(=O)NC(=S)NC3=O)o2)c([N+](=O)[O-])cc1C`, the displacement came to 26.1%.

`Cc1ccc(-n2c(-c3ccccc3)n[nH]c2=S)cc1`: the displacement is -10.5%.

Turning to `CCOc1ccc(C(=O)Nc2cc3nn(-c4ccc(C)cc4)nc3cc2C)cc1[N+](=O)[O-]`, the displacement stood at 6.8%.

For `CCCCc1nnc(NC(=O)CN2C(=O)/C(=C/c3ccccc3Cl)SC2=S)s1`, the displacement was -9.1%.

In the case of `Cc1ccc(NC(=O)C2CC(=O)N(c3cccc([N+](=O)[O-])c3)C2)cc1C` (stereo not drawn), the displacement was -9.8%.

With `Cc1cccc(/C(N)=N/OC(=O)c2ccc(C)c([N+](=O)[O-])c2)c1`, the displacement is 2.2%.

In the case of `COCCCNC(=O)c1cc(-c2ccccc2)nc2ccccc12`, the displacement was -3.9%.

Take `O=C(/C=C/c1cccc(Cl)c1)c1ccc2c(c1)OCCO2`: the displacement was -7.4%.

With `O=C1C(=Cc2ccc(OCc3ccc(F)cc3)c(Br)c2)C(=O)c2ccccc21`, the displacement was 19.1%.

Regarding `COc1ccc(Cl)cc1C(=O)NCc1cccnc1`, the displacement is -8.5%.

On to `O=C(NCC(O)c1ccccc1)C(=O)NC1CC1` (stereo not drawn), for which the displacement is 6.9%.

For the molecule `Cc1cc(Nc2ccccc2)c2c([N+](=O)[O-])cc(C)c(C)c2n1`, the displacement is -1.6%.

Turning to `O=C(O)c1cccnc1SC1CC(=O)N(c2cccc(C(F)(F)F)c2)C1=O` (stereo not drawn), the displacement is -3.7%.

For the molecule `CC1=NN(c2ccc(Cl)c(C(=O)O)c2)C(=O)/C1=C\c1cccc([N+](=O)[O-])c1`, the displacement was -2.6%.

On to `CCOCCOC(=O)c1ccc(NC(=O)c2ccncc2)cc1`, for which the displacement came to 7.1%.

Take `CC1CCc2sc3nc(Cc4ccccc4)n(N)c(=O)c3c2C1` (stereo not drawn): the displacement is -1.3%.

For `O=C(Nc1nc(-c2ccccc2)cs1)c1ccc(S(=O)(=O)N2CCOCC2)cc1`, the displacement is 0%.

Turning to `O=C(c1nn2c(C(F)(F)F)cc(-c3ccco3)nc2c1Cl)N1CCCCC1`, the displacement stood at 2.3%.

On to `COc1ccccc1C(=O)NCCCC(=O)O`, for which the displacement was 7.8%.

As for `O=C(CCc1ccccc1)NNC(=O)c1ccc(F)cc1`, the displacement was -12.1%.

On to `COc1ccc(NC(=O)CN(c2ccc(Cl)cc2)S(C)(=O)=O)c(OC)c1`, for which the displacement was found to be 10.7%.

For `COc1ccc(NC(=O)c2nn3c(C(F)(F)F)cc(-c4cccs4)nc3c2Br)c(OC)c1`, the displacement stood at 37.8%.

In the case of `COc1ccc(OC)c(NC(=O)COc2ccc(Br)cc2C)c1`, the displacement was 4.7%.

For `COc1ccc(/C=C/C(=O)c2c3c(c(C)[nH]c2=O)CCCC3)cc1`, the displacement turned out to be 7.3%.

Turning to `COc1ccc(/C=C2\SC(=Nc3ccc(F)cc3)NC2=O)cc1OC`, the displacement turned out to be 9.6%.

In the case of `O=C1CC(CC(=O)N/N=C/c2ccccc2[N+](=O)[O-])=NN1`, the displacement was -8.8%.

As to `CCC(C)(C#CCN1CCCC1)OC(C)=O` (stereo not drawn), the displacement came to 7.1%.

Regarding `Cc1ccc(C(=O)N2CCN(c3ccc(F)cc3)CC2)cc1[N+](=O)[O-]`, the displacement is -16.8%.

Take `COC(=O)C1=C(C)NC2=C(C(=O)CC(C)(C)C2)C1c1ccc(OCc2ccccc2Cl)c(OC)c1` (stereo not drawn): the displacement was -21.7%.

For `O=C(CN1C(=O)c2cccc([N+](=O)[O-])c2C1=O)N1CCc2ccccc2C1`, the displacement came out at 0.3%.

For the molecule `CC1(C)CC(=O)C2=C(C1)Nc1ccccc1N(C(=O)Cc1ccccc1)C2c1ccc(Cl)cc1` (stereo not drawn), the displacement came to 6.7%.

As to `COc1ccc(N(CC(=O)Nc2cc(C)ccc2C)S(C)(=O)=O)c(OC)c1`, the displacement stood at 17.3%.

Regarding `COC(=O)c1ccc(NC(=S)NC(=O)CCN2C(=O)c3ccccc3C2=O)cc1`, the displacement was 5.7%.

For `Cc1ccc(NC(=O)C2COc3ccccc3O2)cc1C` (stereo not drawn), the displacement was -2.7%.

As to `CCc1ccc(C(=O)/C=C/c2ccc([N+](=O)[O-])o2)cc1`, the displacement was -14.7%.

Consider `O=C(COc1ccccc1)Nc1ccc(Cl)c(-c2nc3ncccc3o2)c1`, for which the displacement turned out to be 3.7%.

Consider `Cc1c(C)c2ccc(OC(C)C(=O)c3ccccc3)cc2oc1=O` (stereo not drawn), for which the displacement stood at 10.5%.

Take `COc1ccc(N(CC(=O)Nc2cccc(C(F)(F)F)c2)S(=O)(=O)c2ccccc2)cc1`: the displacement worked out at 8.8%.

With `CSC1=[N+](c2ccccc2)C(O)C(C)CN1` (stereo not drawn), the displacement was -43.4%.

Take `O=[N+]([O-])c1cc(C(F)(F)F)cc([N+](=O)[O-])c1Nc1cccc(Cl)c1Cl`: the displacement is 7.4%.

Consider `O=C1Nc2ccccc2/C1=N\N=C\c1c(F)cccc1Cl`, for which the displacement amounted to 5.2%.

As to `CN(/C(=N\S(=O)(=O)c1ccc(Cl)cc1)c1ccccc1)c1ccc(O)cc1`, the displacement stood at 1%.

For `COc1ccc(NC(=O)C2CCCN(Cc3ccccc3)C2)cc1OCC(C)C` (stereo not drawn), the displacement is -2.4%.

Turning to `O=C(O)c1cc(C(=O)O)cc(N2C(=O)c3ccc(Oc4cccc([N+](=O)[O-])c4)cc3C2=O)c1`, the displacement was determined as 3.2%.

In the case of `CC(=O)Nc1ccc(OC/C=C(\C)Cl)cc1`, the displacement was 10.9%.

With `COc1ccccc1-c1c(C(F)(F)F)oc2cc(OCC(=O)O)ccc2c1=O`, the displacement came to 2.8%.

Regarding `COc1cccc(NC(=O)c2ccc(F)cc2)c1`, the displacement is -2.7%.

`O=C(Nc1ccc(F)c(Cl)c1)c1cc([N+](=O)[O-])ccc1Cl`: the displacement is -10.3%.

Regarding `C=CCn1c(C(C)O)nc2ccccc21` (stereo not drawn), the displacement was -6.8%.

As to `O=C(NCc1ccco1)/C(=C/c1cccnc1)NC(=O)c1cccc(Br)c1`, the displacement is 18%.

Regarding `COc1cc(/C=N/NC(=O)c2ccc([N+](=O)[O-])cc2)ccc1OC(=O)c1sc2ccccc2c1Cl`, the displacement turned out to be 1.8%.

As to `CC1CCN(CCOCCOc2cc(Cl)ccc2Cl)CC1`, the displacement was determined as 6.3%.

For `CC1=C(C(=O)Nc2ccccc2C)C(c2ccccc2O)NC(=O)N1` (stereo not drawn), the displacement came to 5.4%.

As for `CCOc1ccc(NC(=O)Cc2ccc(Br)cc2)cc1`, the displacement was determined as 3.8%.

Take `CCCOc1ccc(N2C(=O)C3C4C=CC(C4=C(C)C)C3C2=O)cc1` (stereo not drawn): the displacement was 9.9%.

`Cc1ccc(S(=O)(=O)Oc2c(C=C3C(=O)CC(C)(C)CC3=O)[nH]c3ccccc23)cc1`: the displacement was determined as 14.6%.

Regarding `CCOc1ccc(NC(=O)c2cccc(Oc3ccccc3)c2)c([N+](=O)[O-])c1`, the displacement stood at 7%.

As for `CC(/C=C/c1ccco1)=N/NC(=O)c1ccc([N+](=O)[O-])cc1`, the displacement amounted to 8.4%.

With `O=[N+]([O-])c1ccc(/C=N/NS(=O)(=O)c2ccc(Cl)cc2)s1`, the displacement was found to be 2.3%.

For `C=C1c2ccc(C)cc2NC(=O)N1CC`, the displacement stood at 10.5%.

Turning to `CCOc1ccc(C(=O)Nc2cc(-c3nc4ccc(C)cc4o3)ccc2Cl)cc1`, the displacement stood at 1.1%.

For the molecule `CN1C(=O)/C(=C\c2ccc([N+](=O)[O-])cc2)SC1=S`, the displacement is -5.5%.

With `O=C1C=C/C(=N\S(=O)(=O)c2ccc(F)cc2)c2ccccc21`, the displacement worked out at 1.7%.

Consider `CCCCCOC(=O)CCN1C(=O)/C(=C/c2ccccc2)SC1=S`, for which the displacement came out at 5.2%.

For `COc1ccccc1NC(=O)C1CC1(c1cccc(C)c1)c1cccc(C)c1` (stereo not drawn), the displacement was -10.5%.

As for `COc1ccc(-c2cc(C(=O)Nc3cccc(Cl)c3)c3ccccc3n2)cc1OC`, the displacement came out at 4.5%.

With `COCCN1C(=O)C(=O)/C(=C(/O)c2ccccc2)C1c1ccc(OC)cc1OC` (stereo not drawn), the displacement was 8.4%.

For `Cc1cc(Cl)ccc1NC(=O)/C=C/c1ccccc1`, the displacement is -9.4%.

Consider `Cc1ccc(N2CC(C(=O)Nc3ccc(C)c(C)c3)CC2=O)cc1` (stereo not drawn), for which the displacement was 10.7%.

`Cc1ccc(NC(=O)c2c(NC(=O)c3ccccc3Cl)sc3c2CCCCC3)c(C)c1`: the displacement amounted to 6.2%.

Turning to `CCSc1nnc(NC(=O)c2cccc(Br)c2)s1`, the displacement is -4.4%.

As for `Cc1cc(NS(=O)(=O)c2ccc(NC(=O)c3cc(Cl)ccc3[N+](=O)[O-])cc2)no1`, the displacement was -0.5%.

Regarding `Cc1ccc(C2Nc3ccccc3C(=O)N2c2ccc(C)cc2)cc1` (stereo not drawn), the displacement amounted to 2%.

Regarding `CSCCOC(=O)COc1ccc(/C=N/NC(=O)c2ccc(CN3CCOCC3)cc2)cc1`, the displacement was -0.8%.

`O=C1/C(=C\c2ccccc2F)SC(=S)N1CN1CCOCC1`: the displacement worked out at 12.9%.

On to `O=C1NC(=Nc2ccc(O)cc2)S/C1=C\c1ccc([N+](=O)[O-])cc1`, for which the displacement was -18.9%.

On to `CCc1cc(=O)oc2cc(OCc3ccc(F)cc3)ccc12`, for which the displacement is -1.3%.

For `COC(=O)c1ccc(NC(=O)c2c(Cl)cccc2Cl)cc1`, the displacement came out at 15.1%.

Consider `Cc1ccc(NC(=O)CC2Sc3ccccc3NC2=O)cc1` (stereo not drawn), for which the displacement came to 10%.

For `COc1ccc(S(=O)(=O)NCCC(C)C)cc1`, the displacement turned out to be 7.3%.

For `COc1ccc(/C=C2\C(=O)NC(=O)N(c3ccc(C)cc3)C2=O)c(C)c1`, the displacement is 8.4%.

Values taken from PubChem BioAssay AID1240 (Sanford-Burnham Center for Chemical Genomics, 2008).
